In all, about 33,000 sequences were measured (“E-score (-0.5 to 0.5)”: median about -0.036, highest 2% from about 0.37 on). Some of the results follow.
These sequences were tested against T1, Yer064c (UniProt P40041) (assay: PBM E-score (8-mer binding enrichment) (E-score (-0.5 to 0.5)); higher = stronger / more preferred TF binding; most listed sequences are background and not binding sites). Details: protein concentration: 200 nM; construct: GST-full length.
T1 sequence: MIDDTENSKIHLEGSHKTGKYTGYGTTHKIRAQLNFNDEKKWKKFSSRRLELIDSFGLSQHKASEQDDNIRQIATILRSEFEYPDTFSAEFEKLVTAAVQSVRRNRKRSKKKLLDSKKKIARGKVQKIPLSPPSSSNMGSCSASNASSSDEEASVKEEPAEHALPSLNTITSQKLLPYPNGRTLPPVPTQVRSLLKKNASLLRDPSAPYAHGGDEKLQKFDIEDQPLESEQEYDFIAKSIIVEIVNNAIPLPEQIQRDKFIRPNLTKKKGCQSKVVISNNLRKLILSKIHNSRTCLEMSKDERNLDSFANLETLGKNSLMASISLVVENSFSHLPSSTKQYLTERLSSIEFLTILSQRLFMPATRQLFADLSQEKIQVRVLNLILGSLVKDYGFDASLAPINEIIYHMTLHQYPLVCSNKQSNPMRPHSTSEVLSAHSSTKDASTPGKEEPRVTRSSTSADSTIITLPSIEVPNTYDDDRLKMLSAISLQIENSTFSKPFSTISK
Procedure, shortened: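 Using PURExpress in vitro transcription/translation, GST-tagged yeast transcription factors were made in full-length or DNA-binding-domain form. These were applied at about 100-200 nM to double-stranded universal all-10-mer Agilent arrays, and bound protein was detected with fluorescent anti-GST. Scans were normalised with masliner before the Universal PBM Analysis Suite assigned E-scores to ungapped eight-base words pooled with their reverse complements.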

| Sequence | PBM E-score |
| --- | --- |
| ACTGCTCC | -0.0976 |
| GGAGCTGA | 0.059 |
| CTTAAAAA | -0.0045 |
| AGGTTCAG | 0.0267 |
| CTTCCTCC | -0.383 |
| AACGCGTG | 0.0132 |
| CTAAGCTA | 0.0659 |
| AAGTCACC | 0.447 |
| AGAATTAT | 0.0179 |
| ACGTCGGA | -0.181 |
| ACAGCTGA | 0.0256 |
| CTGTGCCA | -0.115 |
| CGCTCCCG | 0.17 |
| CATGGACG | -0.174 |
| CGCGCCGC | -0.143 |
| ACCAACCC | -0.0453 |
| CTGAACAA | 0.0541 |
| CTTAGATC | 0.0655 |
| CGAAATCG | -0.0559 |
| AAGGGTAA | 0.0589 |
| CCGAACGC | -0.0566 |
| ACACGAGG | -0.124 |
| AAATCAGG | 0.222 |
| CCAGAGGA | 0.00907 |
| GATGGTCA | 0.131 |

| Sequence | PBM E-score |
| --- | --- |
| TGCAAGAA | 0.00136 |
| CCTCCGAG | -0.0599 |
| GAATGGAA | -0.0983 |
| GGATCGGA | -0.224 |
| CGTGTAGA | 0.00707 |
| GGGATCCA | -0.185 |
| CACGTCAC | -0.17 |
| CGTACGGC | -0.2 |
| ATATAACG | 0.0524 |
| TGCGAGCA | -0.0494 |
| CAATATAA | 0.0543 |
| CCCGAGAA | -0.0467 |
| ATACCCAG | -0.15 |
| ATTGAACA | 0.066 |
| AAGAGTCG | 0.423 |
| AGGTGACG | -0.188 |
| ACGGCTAG | -0.178 |
| CCTGATGC | -0.0643 |
| AACCCATT | -0.00125 |
| GGTGACTA | 0.486 |
| ACTGTATG | 0.139 |
| CGGCCAGA | -0.126 |
| GGGTCCCA | -0.194 |
| CCGGCACG | -0.197 |
| CGGCTAAG | -0.0353 |

| Sequence | PBM E-score |
| --- | --- |
| AAAGCTAG | -0.024 |
| CTCGAGGC | -0.0557 |
| CCCCGCAG | -0.283 |
| CCTCTATA | -0.25 |
| ACGAAAAA | -0.0445 |
| CGCGCGTC | -0.143 |
| CGCAGCGA | 0.123 |
| ATATGAGG | 0.0398 |
| ATTGTCGC | 0.0653 |
| GAAACGGA | -0.204 |
| AAGCAGTG | -0.0938 |
| CGAAGCCC | -0.299 |
| GGCCACAA | -0.268 |
| CGCAGGCC | -0.279 |
| GTGCACGA | 0.00691 |
| CCTTCTCG | -0.281 |
| GGAGTGAC | 0.255 |
| CAGAGAGG | -0.235 |
| ATGATATG | 0.037 |
| CAGTAGTC | 0.403 |
| GTCGAACA | 0.0579 |
| ACTTTGAA | 0.21 |
| CACCGCTC | -0.145 |
| ATAAGGGC | -0.153 |
| ATCACCAC | 0.165 |

| Sequence | PBM E-score |
| --- | --- |
| ACTTAGCG | 0.1 |
| AGGCAAAC | -0.222 |
| CTGATATC | -0.024 |
| AATCTAAA | 0.207 |
| AGATGAGA | 0.191 |
| ACCCTGAT | 0.174 |
| ACAGAACT | 0.158 |
| AACGATGG | 0.00598 |
| ACCATGAC | 0.237 |
| AAGTCTAG | -0.11 |
| ATTTGACC | -0.0689 |
| ACACAGTA | 0.166 |
| AAGACAAC | -0.0105 |
| GCACCTGA | -0.00206 |
| GCAAGGAC | -0.0996 |
| GCGGAAAA | -0.235 |
| GACTGTTA | 0.279 |
| TCTGCACA | -0.111 |
| AAGCAGGC | -0.0443 |
| CTGTTCCA | -0.13 |
| TCGGCACA | -0.0968 |
| ACCCGGCT | -0.0168 |
| GACGGCCC | -0.375 |
| ATCATCCG | 0.242 |
| CCGAGTTA | -0.0385 |

| Sequence | PBM E-score |
| --- | --- |
| ATGGGTGC | -0.15 |
| CTTCGTGA | 0.115 |
| AGGAGTCC | 0.297 |
| AAACACTC | -0.023 |
| AGGATCTC | -0.291 |
| AGCACACA | 0.023 |
| CAACCGAC | 0.00099 |
| CTGCACAA | -0.0559 |
| CCACCATA | -0.0008 |
| ACGCTCTG | -0.0609 |
| ATTTGATG | 0.199 |
| GTCTCCCA | 0.0829 |
| CGAAGATA | 0.0915 |
| ACGTTAAC | -0.0219 |
| ACATTCAC | -0.0247 |
| CATCCTTA | 0.0533 |
| AGAAGGGG | -0.324 |
| CCTGCGCG | -0.0204 |
| CCGCCTCA | -0.181 |
| CTCTTGGA | -0.0132 |
| ATTGACTA | 0.428 |
| CCAGGGAG | -0.015 |
| GGCCGTCA | -0.262 |
| GAAATCTC | -0.0155 |
| AAAGTCCG | -0.274 |

| Sequence | PBM E-score |
| --- | --- |
| ACCTCCAT | -0.229 |
| CCCGTTCG | -0.0469 |
| AGACTGAA | 0.241 |
| AACTTGGT | -0.113 |
| ATTCAGAG | 0.148 |
| CACGAGAC | 0.183 |
| CCGAACTA | 0.0214 |
| GTCGGTCA | -0.0403 |
| AAACGGTT | -0.303 |
| CGGGTCAC | -0.125 |
| ACGCCTAG | -0.133 |
| AGAATCGA | -0.0201 |
| CGTATCAG | -0.0823 |
| CTTTTAAC | -0.104 |
| CAACTAGC | -0.0233 |
| GTGCGTCA | -0.0644 |
| GTGCCGTA | -0.25 |
| GGTACGCA | -0.154 |
| CGGACAGA | -0.0764 |
| CCCGGACA | -0.142 |
| ACACGCGA | 0.0442 |
| TAACGTAA | 0.0837 |
| ATCCAGCC | -0.184 |
| CTTATGTA | 0.19 |
| TAGATTCA | 0.163 |

| Sequence | PBM E-score |
| --- | --- |
| CCCTGCCG | -0.241 |
| GAGGAGGA | -0.192 |
| AATTATTG | 0.0615 |
| ACCGGTAA | -0.0542 |
| GTGTCGTA | 0.146 |
| AGCCAATG | 0.08 |
| ACCGTTAG | -0.0649 |
| CCTATTAA | -0.121 |
| AATATGAC | 0.292 |
| CAGATAAC | 0.15 |
| CTCTCAGA | -0.173 |
| ACTCGTGG | 0.111 |
| CCCGCATA | -0.019 |
| GCCGTACA | 0.0804 |
| AGAGAGGA | 0.0469 |
| CTTAAGCA | -0.00514 |
| ATTTCTGC | 0.0175 |
| CCACGGGG | -0.108 |
| GTGAGAAA | -0.0285 |
| CCGCCAAC | -0.00346 |
| AAAGAGTT | 0.219 |
| AAACAACC | -0.0461 |

— the supplement of paper PMC3334620
